Results on 70 compounds are retold here after PubChem BioAssay AID1240 (Sanford-Burnham Center for Chemical Genomics, 2008).

Among all 50,000 compounds or so, about 800 (1.6%) showed an effect of 50% or more. This is one part of the list.

The target of this experiment is Bcl-2-like protein 10 (Homo sapiens) (UniProt Q9HD36). The experiment can be described thus: TR3 peptide-Bcl-B binding displacers, biochemical primary FP assay, phenotype converters (AID 1240).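 Further: 0% = Bcl-B with tracer peptide and DMSO and 100% = tracer peptide lacking Bcl-B.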 The note with it: GST-Bcl-B / FITC-TR3 peptide fluorescence polarization; stronger effect = higher value; compound at 3.75 mg/L. (In general: Fluorescence polarisation rises when a labelled molecule tumbles more slowly, as on binding a larger partner.)
Sequence of UniProt Q9HD36 (Q9HD36 whole entry, looked up): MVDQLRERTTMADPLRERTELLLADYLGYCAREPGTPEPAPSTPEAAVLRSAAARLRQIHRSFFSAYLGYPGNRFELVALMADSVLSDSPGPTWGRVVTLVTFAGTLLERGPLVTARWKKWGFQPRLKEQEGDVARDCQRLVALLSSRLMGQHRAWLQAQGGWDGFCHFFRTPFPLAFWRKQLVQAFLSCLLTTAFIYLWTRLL
With `CCOC(=O)C1=C(N)Oc2ccc3ccccc3c2C1c1ccc(Cl)cc1` (stereo not given), the displacement is -10.4%. Take `Cc1ccc(C(=O)Oc2ccc3c(-c4ccccc4)cc(=O)oc3c2)cc1`: the displacement is 12.3%. In the case of `O=C(CN1C(=O)c2cccc3cccc(c23)C1=O)N1CCCC1` it was 9.6%; in that of `O=C(c1ccccc1Cl)N1CCc2ccccc21`, 17.9%; in that of `O=C(c1ccco1)N1CCN(Cc2ccc(F)cc2)CC1`, -9.8%. `COc1ccc(-n2nc3cc(C)c(NC(=O)COc4ccc(C)c(C)c4)cc3n2)cc1`: the displacement turned out to be 4.4%. As for `Cc1ccc(S(=O)(=O)N(CC(C)C)CC(C)C)cc1`, the figure is -2.4%; as for `O=C(NCCN1CCOCC1)c1cnn2c(C(F)(F)F)cc(-c3ccco3)nc12`, 0.3%.

For the compound `CCN1C(=O)/C(=C\c2cc(Br)cc([N+](=O)[O-])c2O)SC1=S`, the displacement is -40.5%.

As for `CC1=C(C(=O)Nc2ccc(C)cc2)C(c2ccc(C)cc2)NC(=O)N1` (stereo not given), the displacement was -12.8%. As for `O=C(CCC1CCCC1)Nc1ccc(Br)cn1`, the figure is -4.6%.

Regarding `CCOC(=O)c1oc2ccc(C=NCc3ccccc3)c(Cl)c2c1C`, the displacement is -3.5%.

For `O=c1/c(=C/c2ccc([N+](=O)[O-])cc2)sc2nc3ccccc3n12`, the displacement stood at 86.7%. In the case of `Clc1ccc(N2CCN(/N=C/c3ccccc3Cl)CC2)cc1` it was -5.4%. Consider `COc1ccc2c(c1)-c1c(sn(-c3cc(C)ccc3O)c1=S)C(C)(C)N2`, for which the displacement was 5.1%. In the case of `Cc1oc(NC(=O)CCCC(=O)O)c(C#N)c1C` it was 32.1%.

With `O=C(Cc1ccc(Br)cc1)Nc1cc(Cl)c(Cl)cc1Cl`, the displacement is 15.1%. For `CCCSc1nnc(NC(=O)c2cccc(Cl)c2)s1`, the displacement was 9.8%. Take `O=C(Nc1cccc2ccccc12)C1(c2ccccc2)CCOCC1`: the displacement was -4%. In the case of `COc1ccc(-c2cc(C(F)(F)F)n3nc(C(=O)N4CCN(C)CC4)cc3n2)cc1` it was 3.1%; in that of `CC(C)c1ccc(N2C(=O)NC(=O)/C(=C/c3ccc(F)cc3)C2=O)cc1`, -6.3%; in that of `CC1=C(C(=O)OCCC#N)C(c2cccc([N+](=O)[O-])c2)NC(=O)N1` (stereo not given), 1.9%. In the case of `O=C(Nc1ccccc1C(=O)Nc1ccccn1)c1ccccc1Cl` it was 4%; in that of `CCCCOc1ccc(-c2ccc(C(N)=O)cc2)cc1`, -2.1%; in that of `COc1ccccc1C(O)C(F)(F)F` (stereo not given), -6.7%. With `COc1ccccc1/C=C1/SC(=S)N(CNc2ccc(C)c(Cl)c2)C1=O`, the displacement came out at 13.2%. As for `O=C(COc1ccc(Cl)cc1Cl)N1CCC(Cc2ccccc2)CC1`, the displacement is -9.3%. In the case of `Cc1ccc(-c2csc(/C(C#N)=C/c3ccsc3)n2)cc1` it was -5.9%; in that of `CCOc1ccc2c(c1)NC(C)(C)C1=C2C2(SC(C(=O)OC)=C(C(=O)OC)S2)C(C(=O)OC)=C(C(=O)OC)S1`, -8.5%; in that of `Clc1ccc(CN2CCN(/N=C/c3cccnc3)CC2)cc1`, -2.4%. As for `COc1ccc(/C=N/NC(=O)CCn2c3ccccc3c3ccccc32)cc1`, the figure is 6.3%. As for `COc1ccc(C=NC2=NN(c3ccccc3)CC2)cc1`, the displacement came to 12.2%. In the case of `COCCCNC(=O)c1ccc(N(C)S(=O)(=O)c2ccccc2)cc1`, the displacement was determined as 4.4%. As for `COc1ccc(Cl)cc1/C=C(/C#N)C(=O)Nc1ccc(Cl)cc1`, the figure is -13.4%; as for `O=C(/C=C/c1ccc(F)cc1)NC1CC1`, 4.7%; as for `COc1cc2ccccc2cc1C(=O)Nc1sc2c(c1C(N)=O)CCCC2`, 14.4%. As for `O=C(Nc1ccc(NC(=O)c2cc3ccccc3o2)cc1)c1ccc(Br)cc1`, the figure is -3.4%. For the compound `CC1(C)Cc2c(sc3nc(NN)n(-c4ccccc4)c(=O)c23)CO1`, the displacement is -36.5%.

Regarding `Oc1ccc(Br)cc1CN1CCN(Cc2ccccn2)CC1`, the displacement is 5.1%. In the case of `COc1ccc(C(=O)Nc2ccc(C)c([N+](=O)[O-])c2)cc1OC`, the displacement came to 1.2%. As for `CCc1c(C)sc(NC(=O)CCc2ccccc2)c1C(N)=O`, the figure is 11.5%; as for `COc1cccc2cc(C(=O)Nc3c(C)n(C)n(-c4ccccc4)c3=O)c(=O)oc12`, -4%; as for `Cc1ccccc1-c1cc(C(=O)O)c2ccccc2n1`, 2.3%. As for `C(=C\c1nc(-c2cccnc2)no1)/c1ccccc1`, the figure is 6.6%; as for `O=C(/C=C/Nc1ccccc1F)c1ccccc1`, 8.2%; as for `Cc1ccc(S(=O)(=O)N2C(=O)CC[C@@H]2C(=O)N2CCn3c4c(c5cc(C)ccc53)CCCC42)cc1` (stereo not given in full), 10.6%. As for `O=C(Nc1ccc(I)cc1Cl)c1ccc2c(c1)OCCO2`, the figure is -1.1%; as for `Cc1cc(C)nc(NC(=O)c2c(-c3c(Cl)cccc3Cl)noc2C)c1`, 5.8%. For `COc1ccccc1OCCSc1nc2ccccc2n1CC(=O)O`, the displacement is 5.6%.

As to `CSc1nc2ccc(NC(=O)CSc3nc4ccccc4s3)cc2s1`, the displacement is -4.3%. With `COc1ccc(/C=N/NC(=O)c2[nH]c3ccc([N+](=O)[O-])cc3c2-c2ccccc2)cc1`, the displacement was -1.5%. As for `Cc1cc(/C=C2\C(=O)NC(=S)N(c3ccccc3F)C2=O)c(C)n1-c1cccnc1`, the displacement was determined as 10.3%. For `Cc1c(C(=O)OC(C)C)sc(NC(=O)c2ccc([N+](=O)[O-])cc2Cl)c1C(=O)OC(C)C`, the displacement is 8.2%. Consider `COC(=O)c1ccc(C(=O)OC)c(NC(=O)/C=C/c2ccc(F)cc2)c1`, for which the displacement is -4.8%. `Cc1c(C(=O)Nc2ccc(Nc3ccccc3)cc2)cccc1[N+](=O)[O-]`: the displacement was -5.8%. As to `N/C(Cc1ccc(Cl)cc1)=N\OC(=O)/C=C/c1ccccc1`, the displacement was -2.9%. In the case of `O=C(c1ccc2c(c1)OCCO2)N1CCOCC1` it was -3.4%; in that of `Cc1ccc(S(=O)(=O)Nc2cccc(C)c2C)cc1[N+](=O)[O-]`, 14%; in that of `S=C(NC1CCCCC1)NC(c1ccccc1)(c1ccccc1)c1ccccc1`, 15.4%.

On to `CN(C)c1ccc(CNC(=O)C(O)(c2ccccc2)c2ccccc2)cc1`, for which the displacement turned out to be 8.7%. As for `Cc1ccc(C2NC(=O)NC(O)(C(F)(F)F)C2C(=O)c2ccc(Br)cc2)cc1` (stereo not given), the displacement is 11.2%. With `COC(=O)C1=C(C)N(C)C(C)=C(C(=O)OC)C1c1cccc([N+](=O)[O-])c1`, the displacement is -6.6%. `O=C(CCN1C(=O)S/C(=C/c2ccc(Cl)cc2)C1=O)Nc1ccc(S(=O)(=O)Nc2nccs2)cc1`: the displacement worked out at 12.1%. For the compound `COc1ccc(OCC(O)Cn2c(C)nc3ccccc32)cc1` (stereo not given), the displacement was -22.4%. As for `CCOC(=O)C(=Cc1ccc(-c2ccc(Cl)cc2Cl)o1)C(=O)OCC`, the figure is 26.4%; as for `COc1ccc(-c2noc(COc3cccc(C)c3)n2)cc1OC`, 4.9%. In the case of `NS(=O)(=O)c1ccc(CNC(=O)c2ccco2)cc1` it was 9.8%; in that of `CCC(=O)N1c2ccc(C)cc2C(=C2SC(C(=O)OC)=C(C(=O)OC)S2)C(=S)C1(C)C`, 3.9%; in that of `O=C(NCc1ccncc1)c1cccc(Cl)c1`, -0.7%.

Consider `Clc1ccc(-c2csc(Nc3ncccn3)n2)cc1Cl`, for which the displacement was determined as 11.2%.
